± gives the standard deviation. The list shows a part of the results, in another mix than the full data. Bounds are passed on as bounds.

This experiment deals with MIWI (PIWIL1) piRISC loaded with piRNA #1 (30 nt). In words: pre-steady-state target cleavage rate (min^-1); MIWI and MILI are mouse PIWI proteins and EfPiwi is from a freshwater sponge; tags in brackets are library labels; higher = faster piRNA-guided slicing of the target. The note with it: guide: piRNA #1 5'p-UGAGGUAGUAGGUUGUAUAGUAUCCAGAGG; auxiliary factor: 500 nM mouse GTSF1. An outline of the steps:
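The pre-steady-state cleavage rate was obtained by Cleave-'n-Seq with a burst-and-steady-state fit. A transcribed, DNA-blocked target RNA library (0.1 nM) was mixed with 1 nM active affinity-purified piRISC carrying one synthetic guide, with or without 500 nM GTSF1 partner protein, in HEPES–potassium acetate buffer at 33 °C for 0–8 or 0–960 min. Uncleaved targets were sequenced and normalised to depth and to weakly complementary targets, with three trials pooled and k3 capped at 0.0001 min^-1.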
For the sequence GGAGACCUUACAAUACAACCAACUACCUCA, the “pre-steady-state target cleavage rate” value was determined as 0.00516 ± 0.0025. Then GCUCUGGUUACUAUACAAGCUACUACCUCA, with 1.25 ± 0.054. The result for GGACUGGAAUCUAUACAACCUACUACCUCA reads 1.11 ± 0.12. As for GGAGUGGAUACUAUACAACGAACUACCUCA, the “pre-steady-state target cleavage rate” value was 0.0199 ± 0.0037. Then GGAGAGGAUACUAUAAACCUACUACCUCA, with 0.835 ± 0.085.

Consider GGAGACCUAUCUAUACAACCUACUAACCUCA, for which the “pre-steady-state target cleavage rate” value was 0.7 ± 0.056.

With GGAGACGAUACUAUACAACCUAGCUACCUCA, the “pre-steady-state target cleavage rate” value worked out at 0.178 ± 0.018. Then GGAGACCUAUGAUAUCAACUCUACUACCUCA, with < 0.0001. Then GGAGACCAUACUAUAGAACCUACUACCUCA, with 0.618 ± 0.05. The result for GGAGAGGAUAGCUAUACAACCUACUACCUCA reads 0.179 ± 0.018; that for GGAGACGAAACUAUACAAGCUACUACCUCA, 0.872 ± 0.057; that for CCUCAGGAUAGUAUACAACCUACUACCUCA, 0.142 ± 0.02. GCUCUGGAUACUAUAGAACCAACUACCUCA: the “pre-steady-state target cleavage rate” value came out at 0.0216 ± 0.0031. On to GCUCUGGAUACAAUACAACCAACUACCUCA, for which the “pre-steady-state target cleavage rate” value was found to be 0.147 ± 0.019. The result for GGAGACCUUACUAUUCAACCUAGUACCUCA reads 0.395 ± 0.04.

Consider GGAGUGGAUACUAAACAACCUACUACCACA, for which the “pre-steady-state target cleavage rate” value was 0.55 ± 0.046. The result for GGAGAGGAUACUAUACAACCUACUACCUA reads 0.537 ± 0.044.

In the case of GGAGAGGAUACUAUACAACCUACUUCCUCA, the “pre-steady-state target cleavage rate” value is 0.217 ± 0.051. The result for GGAGAGUGAUACUAUACAACCUACUACCUCA reads 2.1 ± 0.15. In the case of GGAGUGGAUACUACUACAACCUACUACCUCA, the “pre-steady-state target cleavage rate” value was 1.42 ± 0.098. The result for GGAGACCAAACUAUAGAACCUACUACCUCA reads 0.68 ± 0.071; that for GGUCUGGAUAGUAUACAACCAACUACCUCA, 0.0834 ± 0.0079. In the case of CCUCUCGAAACUAUACAACCUACUACCUCA, the “pre-steady-state target cleavage rate” value came to 1.93 ± 0.1. Then GGAGACCUAUCUAUCACAACCUACUACCUCA, with 0.0914 ± 0.015. Take GGAGACCUAUGUAUACAUGCUACUACCUCA: the “pre-steady-state target cleavage rate” value is 0.00421 ± 0.0021. The result for GGAGUGGAUACUAUACAACCUGCUACCUCA reads 1.02 ± 0.061; that for GCUCUGAGAUACUAUACAACCUACUACCUCA, 2.07 ± 0.12; that for GGAGACGAUACUAUACAACCUACUCCCUCA, 0.806 ± 0.063. Then GGUCUGGAUACUAUUCAACCUACUACCUGA, with 0.552 ± 0.1; and GGUCUGGAUACUAUACAACCUAUUACCUCA, with 1.09 ± 0.079; and GGACUCGAUACUAUACAACCUACAACCUCA, with 0.296 ± 0.039. Then GGAGUGGAUUCUAUACAACCUACUAGCUCA, with 0.148 ± 0.026; and CCUCUGGAUACUAUAGUUCCUACUACCUCA, with 0.226 ± 0.029; and GCUCUGUAUACUAUACAACCUACUACCUCA, with 1.76 ± 0.093.

For GGAGACGAAACUAUACAACGUACUACCUCA, the “pre-steady-state target cleavage rate” value was 0.415 ± 0.03.

GGACUGGAUACUAUACUACCUACUACCUGA: the “pre-steady-state target cleavage rate” value is 0.5 ± 0.096. The result for GGAGACGAAAGUAUACAACCUACUACCUCA reads 0.527 ± 0.062; that for GGACUGGAUACUAUACAACCUAGCUACCUCA, 0.228 ± 0.024.

In the case of GGUCUGGAUACAUAUACAACCUACUACCUCA, the “pre-steady-state target cleavage rate” value turned out to be 1.73 ± 0.1. Then GGAGACCAUACUAUACAACCUACUUCCUCA, with 0.666 ± 0.054.

For the origin of these results see the supplement of paper PMC10338343.
